System: Clostridium
Assay: Inhibition of Clostridium welchii histidine decarboxylase assessed as 14CO2 production using L-histidine as substrate at 5 mM after 20 mins by scintillation counting analysis

Compound | inhibition
CC1(C)NC(=O)[C@H](Cc2cnc[nH]2)N1 | 44%
CC1(C)NC(=O)[C@H](Cc2c[nH]c3ccccc23)N1 | 2%

Reference: ChEMBL document CHEMBL3272345, “Specificity in enzyme inhibition. 3. Synthesis of 5-substituted 2,2-dimethyl-4-imidazolidinones as inhibitors of tyrosine decarboxylase and histidine decarboxylase” (1976)
